Screen size: about 48,000 compounds; about 550 (1.1%) were called active. Another 4% or so got no clear call; they are omitted. Rule as the data show it: active = potency below about 15 µM; inconclusive = mostly about 16 µM to 33 µM; inactive = weaker than that. This is one part of the list.
What follows are compounds tested against Lysosomal acid glucosylceramidase (Homo sapiens) (UniProt P04062) (assay: Glucocerebrosidase). Conditions: purified enzyme, resorufin glucoside fluorescence (screen aimed at inhibitors), 20 min; series mostly up to 77 µM.
Summary of the method: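 Wild-type enzyme at 0.2 nM final in 50mM citric acid/KH2PO4, 10mM sodium taurocholate, 0.01% tween-20, pH 5.9, with resorufin beta-D-glucopyranoside at 30 uM final. Compounds titrated, 20 min at RT, red fluorescence read; AC50 from titration.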
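Also: the screen sought inhibitors.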
Potency is read from the fitted curve at half-maximal effect.

UniProt P04062, sequence (P04062 whole entry, looked up): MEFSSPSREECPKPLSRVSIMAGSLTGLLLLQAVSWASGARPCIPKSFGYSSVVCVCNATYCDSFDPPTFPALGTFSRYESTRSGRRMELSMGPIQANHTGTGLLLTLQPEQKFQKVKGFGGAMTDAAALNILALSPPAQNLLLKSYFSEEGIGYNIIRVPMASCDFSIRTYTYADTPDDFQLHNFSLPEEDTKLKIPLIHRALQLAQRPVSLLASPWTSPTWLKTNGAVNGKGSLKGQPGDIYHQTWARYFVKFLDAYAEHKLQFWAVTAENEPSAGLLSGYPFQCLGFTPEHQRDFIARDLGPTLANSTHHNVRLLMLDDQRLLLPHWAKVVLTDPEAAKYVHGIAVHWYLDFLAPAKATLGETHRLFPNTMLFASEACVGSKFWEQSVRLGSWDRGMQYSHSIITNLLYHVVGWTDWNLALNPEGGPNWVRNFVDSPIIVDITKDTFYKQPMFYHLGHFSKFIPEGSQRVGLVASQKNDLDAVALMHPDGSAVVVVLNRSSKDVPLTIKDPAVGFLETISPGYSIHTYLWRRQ

Row | SMILES | Potency
1 | O=C(Cc1c(C(=O)O)[nH]c2ccccc12)NCCN1CCN(c2ccccc2F)CC1 | inactive: > 76.9 µM
2 | CCOc1ccccc1NC(=O)N1CCC(n2nnc3cc(C)ccc32)CC1 | inactive: > 76.9 µM
3 | CC(C)(C)c1cc(NS(=O)(=O)c2ccc3c(c2)OCCO3)on1 | inactive: > 76.9 µM
4 | COc1ccc(N=C2SC(C(=O)O)CC(=O)N2Cc2ccc(OC)c(OC)c2)cc1 (stereo not drawn) | inactive: > 76.9 µM
5 | N#Cc1cc2c(nc1SCc1cccnc1)CCCCC2 | inactive: > 76.9 µM
6 | Cc1cccc(N2CCN(C(=O)CCCOc3ccccc3)CC2)c1C | inactive: > 76.9 µM
7 | CC1CCCCC1NC(=O)COC(=O)c1ccc(S(=O)(=O)N2CCOCC2)cc1 (stereo not drawn) | inactive: > 76.9 µM
8 | CC(=O)N1CCC(=O)N(C(C)C)c2ccccc21 | inactive: > 76.9 µM
9 | CC(=O)c1cccc(NC(=O)N2CCCC2C(=O)NCc2ccc(F)cc2)c1 (stereo not drawn) | inactive: > 76.9 µM
10 | C=CCNC(=O)C1CCN(S(=O)(=O)c2ccccc2)CC1 | inactive: > 76.9 µM
11 | Cc1ccc(S(=O)(=O)C2(C(=O)N3CCCCCC3)CC2)cc1 | inactive: > 76.9 µM
12 | O=C(CSCc1cnn(-c2ccccc2)c1-n1cccc1)NCc1cccs1 | inactive: > 76.9 µM
13 | COc1ccc(Br)cc1C(=O)Nc1ccc(N2CCN(S(C)(=O)=O)CC2)cc1 | active: 11.7 µM
14 | O=C(CCNS(=O)(=O)c1ccc(Br)s1)N1CCN(c2ccccc2)CC1 | inactive: > 76.9 µM
15 | Cc1ccc(NC(=O)N2CCC(C(=O)NCC(C)C)CC2)cc1 | inactive: > 76.9 µM
16 | CCC(C)n1c(-c2cccs2)nc2nc3ccccc3nc21 (stereo not drawn) | inactive: > 76.9 µM
17 | COc1ccc(-c2cc(C(=O)N3CCc4ccccc4C3)no2)cc1OC | inactive: > 76.9 µM
18 | c1ccc(-c2nc3nc4ccccc4nc3n2Cc2ccco2)cc1 | inactive: > 76.9 µM
19 | Cn1c(=O)[nH]c(=O)c2c1nc(CN1CCN(c3ccccc3F)CC1)n2CCCc1ccccc1 | inactive: > 76.9 µM
20 | CCOC(=O)c1sc2nc3c(cc2c1N)COC(C)(C)C3 | inactive: > 76.9 µM

Row | SMILES | Potency
21 | C=CCNc1oc(-c2cccc3ccccc23)nc1C#N | inactive: > 76.9 µM
22 | COC(=O)c1cn(C(=O)OC)c2ccccc12 | inactive: > 76.9 µM
23 | O=c1cc(-c2ccccc2)[nH]c2[nH]n(-c3ccccc3)c(=O)c12 | inactive: > 76.9 µM
24 | Cc1ccc(C)c(Cn2nnc3c(=O)[nH]c(C(=O)NCc4ccco4)nc32)c1 | inactive: > 76.9 µM
25 | O=C(COC(=O)c1cccs1)NCc1ccccc1 | inactive: > 76.9 µM
26 | Cc1cccc2cc(CN(CCN3CCOCC3)C(=O)NCc3ccccc3)c(=O)[nH]c12 | inactive: > 76.9 µM
27 | COC(=O)c1ccc(NC(=O)C2CCCN2S(=O)(=O)c2ccc(OC)cc2)cc1 (stereo not drawn) | inactive: > 76.9 µM
28 | Cc1ccc(SCC(=O)NCCN2C(=O)CSC2=O)c(C)c1 | inactive: > 76.9 µM
29 | CN(c1ccc(OCc2nnc(-c3ccccc3)o2)cc1)S(=O)(=O)c1ccccc1 | inactive: > 76.9 µM
30 | CCCCC(=O)Nc1cccc(NC(=O)CC)c1 | inactive: > 76.9 µM
31 | CCN(CC)S(=O)(=O)c1cccc(C(=O)N2CCCCC2)c1 | inactive: > 76.9 µM
32 | Cc1ccc2c(c1)C(O)(c1c(C)[nH]c3ccccc13)C(=O)N2 (stereo not drawn) | inactive: > 76.9 µM
33 | COc1ccc(CCn2c(C)cc(C(=O)CSc3nnc(N)s3)c2C)cc1 | inactive: > 76.9 µM
34 | CC(C)C(OC(=O)c1ccco1)C(=O)NC1CCCCC1 (stereo not drawn) | inactive: > 76.9 µM
35 | CCCCn1nnc(NC(=O)c2sc3cc(Cl)ccc3c2Cl)n1 | inactive: > 76.9 µM
36 | Cc1ccc(S(=O)(=O)N2CCC(C(=O)Nc3nnc(C4CCCC4)s3)CC2)cc1 | inactive: > 76.9 µM
37 | CCOC(=O)c1ccccc1NC(=O)CSc1nc2c(c(=O)n(C)c(=O)n2C)n1C | inactive: > 76.9 µM
38 | Cc1cc(C)c(C)c(OCc2nc(-c3cccnc3)no2)c1 | inactive: > 76.9 µM
39 | O=C(CCNS(=O)(=O)c1cccs1)N1CCc2ccccc2C1 | inactive: > 76.9 µM
40 | COc1cccc(-n2c(SCC(=O)OC(C)C)nnc2-c2cccnc2)c1 | inactive: > 76.9 µM

Row | SMILES | Potency
41 | Cc1cc(NC(=O)COC(=O)COc2ccc3c(c2)CCC3)no1 | inactive: > 76.9 µM
42 | Cc1ccc(-c2nc(N)n(C(=O)Cc3ccccc3)n2)cc1 | inactive: > 76.9 µM
43 | CC1CCCCN1c1nnc(N)s1 (stereo not drawn) | inactive: > 76.9 µM
44 | CC(=O)c1cn(CC(=O)NCc2cccnc2)c2ccccc12 | inactive: > 76.9 µM
45 | Cc1ccc(C(C)C)c(OCC(=O)Nc2ccc(Cl)cn2)c1 | inactive: > 76.9 µM
46 | Clc1ccc(-c2nn3c(-c4ccncc4)nnc3s2)c(Cl)c1 | inactive: > 76.9 µM
47 | CCCC(=O)Nc1ccc2oc(-c3ccncc3)nc2c1 | inactive: > 76.9 µM
48 | O=C(NC1(C(F)(F)F)C(=O)Nc2c1c(=O)[nH]c(=O)n2Cc1ccco1)C1CC1 (stereo not drawn) | inactive: > 76.9 µM
49 | NC(=O)c1sc2nc3c(c(-c4cccs4)c2c1N)CCCC3 | inactive: > 76.9 µM
50 | CCOC(=O)c1ccc(-n2[nH]c(-c3ccccc3)cc2=O)cc1 | inactive: > 76.9 µM
51 | O=C(NC1CCCCC1)C1CCN(c2nccs2)CC1 | inactive: > 76.9 µM
52 | Cc1ccc2nc(-c3ccc(SCC(=O)O)nc3)[nH]c2c1 | inactive: > 76.9 µM
53 | CCOc1ccc(NC(=O)CN2CCN(CC(=O)Nc3ccc(C(=O)OC)cc3)CC2)cc1 | inactive: > 76.9 µM
54 | CN1CCN(C(=O)c2ccc3c(c2)NC(=O)C(C)(C)O3)CC1 | inactive: > 76.9 µM
55 | COc1cccc(CNc2ccc(S(N)(=O)=O)cc2)c1OC | inactive: > 76.9 µM
56 | O=C(OCn1nnc2ccccc2c1=O)c1ccc2ncsc2c1 | inactive: > 76.9 µM
57 | Cc1ccc2c(COC(=O)c3cnc(C)cn3)cc(=O)oc2c1 | inactive: > 76.9 µM
58 | CCOc1ccc(NC(=O)CN2CCC(NC(=O)C3CCCCC3)CC2)cc1 | inactive: > 76.9 µM

Reference: PubChem BioAssay AID360 (National Center for Advancing Translational Sciences (NCATS), 2006)
